{"source": "PubChem BioAssay AID651687", "about": "(Broad Institute, 2012)", "note": "Several values for one entry are separate records, joined by “and”; a condition that tells them apart may be missing. Equal entries are not always repeated. The campaign covered roughly 350,000 compounds. About 600 (0.17%) were called active. Inconclusive means that the source gave no clear call. Such entries were picked first, then a sample of the others.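 The calls were made as follows: active = every replicate shows inhibition of at least 40%; inconclusive = mean inhibition at least 40% but some replicate below; inactive = the rest.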", "data": [{"assay": "inhibitors of PGC1a acetylation signal, primary screen, cell-based, U2OS, AlphaScreen, inhibitor mode (AID 651687);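 also: 0% = neutral control wells and 100% = positive control wells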", "conditions": "AlphaScreen anti-acetyl-lysine, at 15.6 µM, stronger effect = higher value, with virally co-expressed GCN5 acetyltransferase", "values": [{"smiles": "CC1=C/C(=N\\OS(=O)(=O)c2ccccc2)C(C)=CC1=O", "inhibition": "active: 60%"}, {"smiles": "C/C=C/c1ccc2c(c1)O[C@H](CN(C)C(=O)C1CC1)[C@H](C)CN([C@@H](C)CO)S2(=O)=O", "inhibition": "inconclusive: 47%"}, {"smiles": "COc1ccc(C2CC(=O)N(C)c3ccccc3S2)cc1", "note": "(stereo not given)", "inhibition": "inconclusive: 41.1%"}, {"smiles": "C[C@@H]1CN([C@H](C)CO)C(=O)CCCn2nncc2CO[C@H]1CN(C)C(=O)C1CC1", "inhibition": "inconclusive: 50.9%"}, {"smiles": "COC(=O)c1sc(-c2ccc(C(C)(C)C)cc2)cc1NC(=O)c1ccccc1C(=O)O", "inhibition": "inactive: -32.3%"}, {"smiles": "CCn1c2ccccc2c2cc(/C=N/n3cn[nH]c3=S)ccc21", "inhibition": "active: 41.6%"}, {"smiles": "Cc1cccc(NC(=O)CNC(=O)Cn2ncc(Cl)c(Cl)c2=O)c1C", "inhibition": "inconclusive: 50.9%"}, {"smiles": "CCN(CC)CCNc1nc(-c2ccc(OC)cc2)c(-c2ccc(OC)cc2)s1", "inhibition": "inconclusive: 44.6%"}, {"smiles": "O=C1CN(C(=O)COC(=O)/C=C/c2ccco2)c2ccccc2N1", "inhibition": "inconclusive: 40.3%"}, {"smiles": "Fc1ccc(/C=N/N2CCCCC2)c(F)c1", "inhibition": "active: 65.9%"}, {"smiles": "CN(Cc1ccccc1)C(=O)c1ccc2c(c1)NC(=O)C(N1CCOCC1)S2", "note": "(stereo not given)", "inhibition": "inconclusive: 48.8%"}, {"smiles": "Cc1cc(C(=O)NNC(=S)NCc2ccccc2)no1", "inhibition": "inconclusive: 44.5%"}, {"smiles": "COc1cc(C=C(C(C)=O)C(C)=O)ccc1O", "inhibition": "inconclusive: 40.4%"}, {"smiles": "C[C@@H]1CN([C@@H](C)CO)C(=O)c2cccc(NC(=O)c3ccc(-c4nccs4)cc3)c2O[C@@H]1CN(C)C(=O)Nc1ccc(C(F)(F)F)cc1", "inhibition": "inconclusive: 54.6%"}, {"smiles": "CCOC(=O)c1c(C)n(C)c2cc(Br)c(O)c(O)c12", "inhibition": "inconclusive: 47.4%"}, {"smiles": "CCOC(=O)/C(C#N)=N/Nc1ccc(S(=O)(=O)Nc2cc(OC)nc(OC)n2)cc1", "inhibition": "inconclusive: 51.7%"}, {"smiles": "O=C(COC(=O)c1cc[n+]([O-])cc1)Nc1cccc(Cl)c1Cl", "inhibition": "inconclusive: 48.3%"}, {"smiles": "CC(C)NC(=O)N1CC[C@H]2[C@@H]1c1cc(Br)ccc1N(C)[C@H]2CO", "inhibition": "inactive: -27.8%"}, {"smiles": "CCNC(=O)NC(=O)COc1ccccc1C#N", "inhibition": "inconclusive: 45.4%"}, {"smiles": "C[C@@H]1CN([C@H](C)CO)S(=O)(=O)c2ccc(-c3ccc(C#N)cc3)cc2O[C@@H]1CN(C)CC1CC1", "inhibition": "inactive: 8.94%"}, {"smiles": "O=C(NN=Cc1ccc(O)cc1)C(=O)NN=Cc1ccc(O)cc1", "inhibition": "inactive: 3.09%"}, {"smiles": "CC(=O)C1=C(O)C(=O)N(Cc2ccco2)C1c1cccc(F)c1", "note": "(stereo not given)", "inhibition": "inconclusive: 51.3%"}, {"smiles": "CCC(=O)NC1(Cc2ccc(O)cc2)CCCCC1", "inhibition": "inconclusive: 43.9%"}, {"smiles": "CCCCOc1ccc(C(=O)C(CN2CCOCC2)c2ccccc2)cc1", "note": "(stereo not given)", "inhibition": "active: 79.6%"}, {"smiles": "CN(C)c1ccc(/C=N/N(CCC#N)C2=NS(=O)(=O)c3ccccc32)cc1", "inhibition": "inconclusive: 52.1%"}, {"smiles": "CNC[C@@H]1Oc2ccc(NS(C)(=O)=O)cc2CC(=O)N([C@H](C)CO)C[C@H]1C", "inhibition": "inactive: 2.9%"}, {"smiles": "c1ccc(N2CCN(C3CC4CCC3C4)CC2)cc1", "note": "(stereo not given)", "inhibition": "inconclusive: 52.7%"}, {"smiles": "CCC(C)(C)NC(=O)c1ccc2c(c1)S(=O)(=O)c1ccccc1C2=O", "inhibition": "inconclusive: 53.9%"}, {"smiles": "C[C@H](O)C#Cc1cnc2c(c1)C(=O)N([C@H](C)CO)C[C@@H](C)[C@H](CN(C)C(=O)CC1CC1)O2", "inhibition": "inactive: -3.41%"}, {"smiles": "C[C@@H]1CN([C@H](C)CO)C(=O)c2cc(NS(=O)(=O)c3ccc(Cl)cc3)ccc2O[C@@H](C)CCCCO[C@H]1CN(C)S(=O)(=O)c1ccccc1", "inhibition": "inactive: -0.668%"}, {"smiles": "CN(C)C(=O)C[C@@H]1CC[C@H]2[C@@H](COc3ccc(NC(=O)C4CCCCC4)cc3C(=O)N2C)O1", "inhibition": "inactive: 7.82%"}, {"smiles": "Nc1n[nH]c(C(F)(F)F)c1-c1ccccc1", "inhibition": "inactive: 10.7%"}, {"smiles": "COc1cc2c(cc1OC)CN(Cc1ccccc1)CC2", "inhibition": "inactive: 10.4%"}, {"smiles": "CN(C[C@H]1[C@@H](c2ccccc2)[C@H](CO)N1C(=O)C1CCC1)C(=O)c1ccccn1", "inhibition": "inactive: -4.69%"}, {"smiles": "C[C@@H]1CN([C@@H](C)CO)C(=O)Cc2cc(NC(=O)CCC(F)(F)F)ccc2O[C@@H]1CN(C)S(=O)(=O)c1ccc(F)cc1", "inhibition": "inactive: -3.51%"}, {"smiles": "Cc1noc(C)c1S(=O)(=O)Nc1ccc2c(c1)CC(=O)N([C@@H](C)CO)C[C@H](C)[C@H](CN(C)S(=O)(=O)c1ccc(Cl)cc1)O2", "inhibition": "inactive: 10.3%"}, {"smiles": "CCOC(=O)C1=Nc2ccccc2C1=[N+]=[N-]", "inhibition": "active: 44.9%"}, {"smiles": "CC1CCc2c(sc(NC(=O)CSc3ncn[nH]3)c2C#N)C1", "note": "(stereo not given)", "inhibition": "inactive: -7.8%"}, {"smiles": "COc1ccc(-c2csc(C(NC(C)=O)c3cccc(OC)c3)n2)cc1", "note": "(stereo not given)", "inhibition": "inactive: -2.34%"}, {"smiles": "Cc1ccc(S(=O)(=O)N[C@@H]2C=C[C@@H](CC(=O)N3CCC(Cc4ccccc4)CC3)O[C@@H]2CO)cc1", "inhibition": "inactive: 0.494%"}, {"smiles": "O=S(=O)(c1ccccc1)N1C[C@@H]2N[C@H](C1)C2c1ccc(-c2ccc(F)cc2)cc1", "note": "(stereo not given in full)", "inhibition": "inactive: -22.5% and inactive: -8.3%"}, {"smiles": "CC(=O)N(C)C[C@H]1Oc2ncc(-c3cccc(C#N)c3)cc2C(=O)N([C@@H](C)CO)C[C@@H]1C", "inhibition": "inactive: -4.63%"}, {"smiles": "CSCC[C@H](NC(=O)c1ccc(Br)o1)c1nnc2ccccn12", "inhibition": "active: 42.9%"}, {"smiles": "CN(CC(=O)NCC1CCCO1)S(=O)(=O)c1cc(Cl)ccc1Cl", "note": "(stereo not given)", "inhibition": "inconclusive: 48.3%"}, {"smiles": "COc1ccc(-c2cn[nH]c2-c2ccc(O)cc2O)cc1", "inhibition": "inconclusive: 42.1%"}, {"smiles": "C[C@@H]1CN([C@H](C)CO)C(=O)CCCn2cc(nn2)CO[C@@H]1CN(C)C(=O)OCc1ccccc1", "inhibition": "inconclusive: 45.8%"}, {"smiles": "O=C(CSc1ncccn1)N1CCc2ccccc2C1", "inhibition": "inactive: -7.95%"}, {"smiles": "O=C(Nc1nc2cc3c(cc2s1)OCCO3)c1ccncc1", "inhibition": "inconclusive: 62.2%"}, {"smiles": "Cc1ccc(C(=O)NNC(=O)c2cccc(Br)c2)cc1", "inhibition": "inconclusive: 63.2%"}, {"smiles": "O=C1NC2(CCC3(CC2)OCCO3)NN1c1ccccc1", "inhibition": "inconclusive: 51%"}, {"smiles": "C=CC(C)n1c(Br)nc2c1c(=O)[nH]c(=O)n2C", "note": "(stereo not given)", "inhibition": "inactive: 9%"}, {"smiles": "COCC(=O)Nc1ccc2c(c1)OC[C@@H](C)N(C(=O)c1ccccn1)C[C@@H](C)[C@@H](OC)CN(C)C2=O", "inhibition": "inconclusive: 49.2%"}, {"smiles": "CCC(=O)N1CC2(C1)[C@H](c1ccc(-c3ccc(C#N)cc3)cc1)[C@@H](CO)N2C(C)=O", "inhibition": "inactive: 10.8%"}, {"smiles": "COc1ccc(CN(Cc2cc3ccc(C)cc3[nH]c2=O)Cc2nnnn2C2CCCC2)cc1", "inhibition": "inconclusive: 52.6%"}, {"smiles": "COc1cc(/C=N/NC(=O)c2ccncc2)ccc1OC(C)=O", "inhibition": "inconclusive: 48.7%"}, {"smiles": "O=C(c1cccc(N2C(=O)C3C4C=CC(C4)C3C2=O)c1)N1CCCc2ccccc21", "note": "(stereo not given)", "inhibition": "inconclusive: 42.1%"}, {"smiles": "CCS(=O)(=O)NCC[C@H]1CC[C@@H](NC(=O)C2CCCCC2)[C@H](CO)O1", "inhibition": "inactive: 2.58%"}, {"smiles": "COc1ccc2c(c1)c(CC(=O)OCC(N)=O)c(C)n2C(=O)c1ccc(Cl)cc1", "inhibition": "inconclusive: 45.3%"}, {"smiles": "CC(C)Cc1nnc(NC(=O)c2cc3c(s2)CCC3)s1", "inhibition": "inconclusive: 43.2%"}, {"smiles": "CCOC(=O)C1CCN(C(=O)CSc2ccc(Br)cc2)CC1", "inhibition": "inconclusive: 40.2%"}, {"smiles": "CC(=O)Nc1ccc(OS(=O)(=O)c2ccc(C)cc2C)cc1", "inhibition": "inconclusive: 47.5%"}, {"smiles": "Nc1ncc([N+](=O)[O-])c(N2CCCCCC2)n1", "inhibition": "active: 52.6%"}, {"smiles": "C[C@@H]1CN([C@H](C)CO)C(=O)c2cc(NS(C)(=O)=O)ccc2O[C@@H]1CN(C)S(=O)(=O)c1ccc(Cl)cc1", "inhibition": "inconclusive: 41.9%"}, {"smiles": "Cc1noc(C)c1NC(=O)Nc1ccc2c(c1)C(=O)N([C@H](C)CO)C[C@@H](C)[C@H](CN(C)C(=O)Nc1ccc(F)cc1)OCCCC[C@H](C)O2", "inhibition": "inactive: 0.691%"}, {"smiles": "Cc1cc(=O)oc2cc(OCC(=O)OCC(=O)Nc3ccccc3F)ccc12", "inhibition": "inconclusive: 44.8%"}, {"smiles": "O=C(CC1CC1)N[C@@H]1CC[C@H](CCNS(=O)(=O)c2ccc(Cl)cc2)O[C@H]1CO", "inhibition": "active: 64.5%"}, {"smiles": "COc1cc(CN2CCCC(CO)(Cc3cccc(Cl)c3)C2)cc2c1OCO2", "note": "(stereo not given)", "inhibition": "inconclusive: 44.5%"}, {"smiles": "C=CC(=O)Nc1cccc(Oc2ccnc(Nc3ccc(N4CCN(C)CC4)cc3)n2)c1", "inhibition": "inconclusive: 40%"}, {"smiles": "O=C(Nc1nc(-c2ccccn2)cs1)c1ccccc1-n1cnnn1", "inhibition": "active: 43%"}, {"smiles": "CCNC(=O)C1(C)CCCN1Cc1ccccc1Cl", "note": "(stereo not given)", "inhibition": "inconclusive: 48.6%"}, {"smiles": "CC(C)NC(=O)Nc1ccc2c(c1)C(=O)N([C@@H](C)CO)C[C@@H](C)[C@H](CN(C)C(=O)NC(C)C)OCCCC[C@@H](C)O2", "inhibition": "inconclusive: 48.7%"}, {"smiles": "Cc1ccc(C)c(NC(=S)Nc2cccc3cnccc23)c1", "inhibition": "inconclusive: 50.9%"}, {"smiles": "CC(C)NC(=O)Nc1ccc2c(c1)C(=O)N([C@H](C)CO)C[C@H](C)[C@@H](CN(C)C(=O)CCC(F)(F)F)OCCCC[C@@H](C)O2", "inhibition": "inactive: -6.95%"}, {"smiles": "Cc1cc(C)cc(N(CC(=O)Nc2c(C)n(C)n(-c3ccccc3)c2=O)S(C)(=O)=O)c1", "inhibition": "inconclusive: 49.5%"}, {"smiles": "CO[C@H]1CN(C)C(=O)c2cc(NS(C)(=O)=O)ccc2OC[C@@H](C)N(C(=O)CC2CC2)C[C@H]1C", "inhibition": "inconclusive: 46.5%"}, {"smiles": "C/C=C/c1ccc([C@H]2[C@@H](CO)N(C(=O)C3CC3)[C@H]2CN(C)S(C)(=O)=O)cc1", "inhibition": "inactive: -1.45%"}, {"smiles": "CN1CCN(C/C(=C2/N=C(c3ccccc3)OC2=O)N(C)C)CC1", "inhibition": "inconclusive: 50.8%"}, {"smiles": "COCCCNC(=S)Nc1cc(C)c(C)cc1C", "inhibition": "active: 75%"}, {"smiles": "CNS(=O)(=O)c1ccc(NC(=S)Nc2ccc3c(c2)OCO3)cc1", "inhibition": "inactive: 1.33%"}, {"smiles": "Cc1ccc(S(=O)(=O)Oc2cccc(/C=N/Nc3ccc(C(=O)O)cc3)c2)cc1", "inhibition": "inactive: -4.18%"}]}]}
